Laboratory results from the supplement of paper PMC10126150.
Values marked as one replicate rest on one cluster of the flow cell; about a third of the high ones do not repeat.

System: ATP
Test: switch fluorescence ratio, 500 uM ATP over buffer (Cy3 cluster intensity, sum of 5 cycles each) (fold (ratio)); higher = stronger signal-on switching upon ATP binding; sequences stand for … in TCGTCGGCAGCGTCAGATGTGTATAAGAGACAGTTTTTTTTTTTTTTTTTTTTTTTTT…TC
Settings: aptamer strand: ATP DNA aptamer (quencher-CACCTGGGGGAGTATTGCGGAGGAAGG + anchor), 100 nM annealed; ATP concentration: 500 uM; one replicate
In short: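 Switching-strand clusters labelled with Cy3 on a modified Illumina MiSeq flow-cell were annealed to 100 nM quencher-labelled ATP aptamer, imaged in selection buffer, and re-imaged after 15 min with 500 uM ATP at 22 °C. This was done over five cycles with NaOH stripping and re-annealing in between. The fluorescence ratio is summed target-cycle over summed buffer-cycle Cy3 intensity per cluster, averaged per switch-domain sequence, excluding clusters outside 100-1000 RFU.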
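Note: ATP exposure 15 min at 22 °C before imaging.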

Sequence | switch fluorescence ratio
ACTACCGTAC | 1.68
GGACTATGAA | 0.972
CCGAGTACCT | 1.23
GCAGGTAAAG | 1.01
GACTCCACCG | 1.19
TTCATCAGTC | 1.02
CTAATAAAAG | 1.03
GTTTGCTGTG | 1.03
GGAGGAAAGA | 1
GGGCGATTAG | 1.06
GGATGGTTCT | 0.998
CAGAAAATCC | 1.01
CATTATACGA | 1.05
TGAAACATAA | 0.999
CAACTGAGG | 1.07
AATGGATG | 0.99
ACGTGGATCG | 1.13
GCTATCCTGG | 0.99
GTACGGACGT | 1.08
TTATACTTTG | 0.919
TTCTGGTAG | 1.01
TGGATTCGCG | 0.995
AGGGTTGAG | 0.989
AGTGAGTTTA | 1.04
CCTTTCGTGA | 1.77
GATAGGGGA | 0.998

Sequence | switch fluorescence ratio
TGCGCACGAG | 1.01
GCCGGCTTTT | 0.994
GCTGCACCGG | 1
ACGTCAGACT | 1.09
ATGGTAGTC | 0.936
AGAGGTACGC | 0.968
CATGGACTTC | 1.06
GCATTCAGGC | 0.983
TGAGGCTCCA | 1.02
CTTTCCGTTA | 1.23
AAGGCGTATG | 0.972
CGCGCCCTTT | 1.07
ATAGTCAACG | 0.957
GTTGGCCGAA | 1
GGCTAGCGAC | 1.02
ATTATAACAA | 1.01
AACGGGCAGG | 1.05
GAATGTGAAG | 1.03
CGGGGCAATG | 2.92
GATCTTTCGC | 1.01
GTTCGGTATA | 0.977
GACAATGATG | 0.977
GCAGCTGAAA | 1.04
CGCTTAAAGG | 1.05
GGTCGACGTT | 1
GTATGGAGAC | 1.03

Sequence | switch fluorescence ratio
ATCCCAGAGG | 1.09
GGCTTAAGCC | 0.967
GTGGGAGAGA | 0.955
AGTCGCGGCG | 1.02
GGACGGATTT | 1.06
TTACCTGTAC | 1.07
TGACATGCTG | 1.04
AGCGGCACTA | 1.07
TTTTACGCCA | 1.96
AAAAAGAGTT | 1.03
ACTGGAAGGA | 1.03
TGTATATACA | 1.05
CTCTATGCCG | 1.12
TTAGTCCCTT | 0.989
CATAGAATCT | 1.01
TACTGGGTTG | 0.994
AGTACTAGAA | 1.03
GATTGGTTAG | 0.991
AAACTGGGTG | 1.21
TTGTAATGAC | 1.05
GTTGTGGACG | 0.917
AGTAGATAGC | 0.998
GCTTGATCAG | 1.02
GCCTCGGTGC | 1.03
AATATAATGG | 0.988
ATCGCGTTCG | 1

Sequence | switch fluorescence ratio
ACCGTGCGGT | 1
GGGTGAGGAC | 0.989
GCTCAAGAAA | 1.05
GATCATTTT | 1.02
TGCGGTATG | 0.983
TCTTGAGTTG | 1.02
CGGAAACTAC | 1.42
CCGGAGTGTA | 2.42
CTAGTCTCCT | 1.07
GCCAGAGTAT | 1
CAAGATATGT | 0.978
TAGTGGTTAC | 1.04
TCAGAGTACT | 1.06
AATATACTAA | 1.03
TGGAACTCGC | 1.05
GGACAATTAG | 1.04
TTACAATGCG | 1
GAAAGGTCGT | 1.01
TGGTGCACTT | 1.02
GATGTGCTCC | 1.09
ACTGATGCAT | 1.06
GCCGCCCTCT | 1.06
ACATTGAACC | 1.03
GATAAGCCAG | 0.968
GTATAATTGG | 0.975
TCCTCGGTTT | 1.14

Sequence | switch fluorescence ratio
TCGTGGTAAA | 1.03
AAGGGCCATG | 1.01
TGCACGCCGC | 1.2
ACTCCGATGG | 2.54
AGAGTAGCAG | 0.974
GGGGTGACT | 1.04
GCCTTACACC | 1.39
AAATTTTAGT | 1.02
TCTCAGGAGC | 1.04
GAGGGTCGGT | 0.994
CCTCTCGGCG | 1.29
AAACGTGCCT | 1.05
GATCGGATGG | 0.996
CAAGGATTTG | 0.997
GCCTTAAGTA | 1.01
AGAAGGGTTT | 0.959
GCTCGTAATG | 1.08
TTTACAATAG | 1.09
TGCTGGTCAC | 0.993
TTTTATGGTA | 0.982
TCCCCTGCTG | 1.11
GGTCCAATCC | 1.01
CCGGGGGGTC | 0.997
TCTAGGCGCC | 1.01
CATTTAAACA | 0.99
CGACACACCT | 1.62

Sequence | switch fluorescence ratio
TTTACTAGCT | 1.05
GACTCCGGCC | 1.92
GTAGATTTTC | 0.984
CAAGGGG | 1.02
TCTTTCAAAT | 1.04
ACAGGGCTTC | 1.01
GTGTTATAG | 1.02
CATCAACTA | 1.01
AAGTAGCGAG | 0.986
TGGTCAGTGC | 1.04
CAATTCGCTT | 1.02
CTTATGGTCA | 0.981
GGGGGTCAGA | 1.02
TGATTGATCC | 1.02
CATCTTAATC | 1.06
AGTGGCTGGT | 1.12
CGCATAGACC | 2.53
TCATTTCTTG | 0.963
TACTTTGGCG | 0.959
AATATGTTAG | 0.977
ACGGGCTAAG | 1.02
GGAACGAATT | 0.984
TTAATTCGGC | 0.977
TGGCACGGTG | 1.07
AGAGCTACTA | 1.06
AGTAGGTTCG | 0.989

Sequence | switch fluorescence ratio
TGAAAGGCAG | 1.03
GCAGGGAGA | 1.02
CAAATGTTTT | 0.995
GCACTTATTA | 1.08
ATCCATGGGA | 0.997
CGGTCCTGTA | 0.997
ATTAGTAAGT | 1.03
GCGACCCAGG | 2.11
GGCGTGTATC | 1.1
AACATGCCCG | 1.07
ACCATCTTGT | 1.02
TGAGAACC | 0.95
CACTAGGGT | 0.996
AGGACGGA | 0.986
GTGAATGGAC | 0.982
GTGACTGGGG | 1.02
TCAAGGCATG | 0.995
ATTCGCTCCT | 1.01
TACGTAATAG | 2.94
ATAGGTTAGC | 0.987
CGTAAGGGCA | 1.04
TGCTGGCTG | 0.984
CCCAGCTGAT | 1.19
GTCAGGCAGT | 1.03
TTGTTAGCGT | 0.979
TTCGCTTCCA | 1.01

Sequence | switch fluorescence ratio
CTGTGCGGCG | 1.01
GATACGTCTG | 1.08
TTGTGTCCAT | 0.989
GTGCTACATG | 1
TAAGGAAGAG | 1.05
CAGTCCGGAT | 0.991
TAGAAACCGG | 1.07
CTGGTCGCCT | 0.975
TAACGGGTAT | 0.991
AGTTGTCAAT | 1
CGACCTGACT | 2.26
TGTGCACCAC | 1.03
GTTCGTTTGC | 1.04
CGATCGTTTG | 1.01
AAGATTGGTC | 0.917
GGGCTAAGCC | 0.978
CTTCTCTTA | 0.963
CTTAACCTTG | 1.01
ACACTTTCGA | 1.06
